# From the supplement of paper PMC12217912
# Some of the results follow. The full chains were built here from the parent and the listed change. Inactive controls read about 0.05.
# B1: TEV protease; numbered along this chain (parent)
# chain: MGESLFKGPRDYNPISSSICHLTNESDGHTTSLYGIGFGPFIITNKHLFRRNNGTLVVQSLHGVFKVKDTTTLQQHLVDGRDMIIIRMPKDFPPFPQKLKFREPQREERICLVTTNFQTKSMSSMVSDTSCTFPSGDGIFWKHWIQTKDGQCGSPLVSTRDGFIVGIHSASNFTNTNNYFTSVPKNFMELLTNQEAQQWVSGWRLNADSVLWGGHKVFMVKPEEPFQPVKEATQL
# Variants of: B1
# Test: raw area under fraction-flipped curve 0-4 h after induction (AUC4h, not background-subtracted), DNA-recorder readout of cleavage of the substrate (dimensionless); higher = more cleavage of the substrate by the protease variant
# Details: temperature: 34 °C; time window: 0-4 h after rhamnose induction
# 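Further: Bxb1 expression induced with 0.2% (w/v) L-rhamnose at OD600 near 0.5, cultures sampled hourly, flipped fraction per protease–substrate barcode pair counted by paired-end Illumina sequencing.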
Variant,area with substrate ENLYFQH,area with substrate ENLYFQI,area with substrate ENLYFQM,area with substrate ENLYFQN,area with substrate ENLYFQP,area with substrate ENLYFQR,area with substrate ENLYFQS,area with substrate ENLYFQV,area with substrate ENLYFQW,area with substrate ENLYFQK
MGESLFKGPRDYNPISSSICHLTNESDGHTTSLYGIGFGPFIITNKHLFRRNNGTLVVQSLHGVFKVKDTTTLQQHLVDGRDMIIIRMPKDFPPFPQKLKFREPQREERICLVTTNFQTKSMSSMVSDTSCTFPSGDGIFWKHWIYTKDGQCGSPLVSTRDGFIVGIHSASNFTNTNNYFTSVPKNFMELLTNQEAQQWVSGWRLNADSVLWGGHKVFMVKPEEPFQPVKEATQL [Q146Y],0.146,0.0557,0.0993,0.0814,0.0648,0.0537,0.116,0.0557,0.0681,
MGESLFKGPRDYNPISSSICHLTNESDGHTTSLYGIGFGPFIITNKHLFRRNNGTLVVQSLHGVFKVKDTTTLQQHLVDGRDMIIIRMPEDFPPFPQKLKFREPQREERICLVTTNFQTKSMSSMVSDTSCTFPSGDGIFWKHWIQTKDGQCGSPLVSTRDGFIVGIHSASNFTNTNNYFTSVPKNFMELLTNQEAQQWVSGWRLNADSVLWGGHKVFMVKPEEPFQPVKEATQL [K90E],0.0989,0.0603,,,0.0538,0.0632,0.106,,0.0631,0.0577
MGESLFKGPRDYNPISSSICHLTNESDGHTTSLYGIGFGPFIITNKHLFRRNNPTLVVQSLHGVFKVKDTTTLQQHLVDGRDMIIIRMPKDFPPFPQKLKFREPQREERICLVTTNFQTKSMSSMVSDTSCTFPSGDGIFWKHWIQTKDGQCGSPLVSTRDGFIVGIHSASNFTNTNNYFTSVPKNFMELLTNQEAQQWVSGWRLNADSVLWGGHKVFMVKPEEPFQPVKEATQL [G54P],0.0671,,,0.0602,,,0.0676,,,
MGESLFKGPRDYNPISSSICHLTNESDGHTTSLYGIGFGPFIITNKHLFRRNNGTLVVQSLHGVFKVKDTTTLQQHLVDGRDMIIIRMPKDFPPFPQKLKFREPQREERICLVTTNFQTKSMSSMVSDTSCTFPSGDGIFWKHWIQTKDGQCGSPLVSTRDGFIVGIHSASNFTNTNNYFTSVPKNVMELLTNQEAQQWVSGWRLNADSVLWGGHKVFMVKPEEPFQPVKEATQL [F187V],0.071,,,,0.0585,,0.116,,,
MGESLFKGPRDYNPISSSICHLTNESDGHTTSLYGIGFGPFIITNKHLFRRNNGTLVVQSLHGVFKVKDTTTLQQHLVDGRDMIIIRMPKDFPPFPQKLKFREPQREERICLVTTNFQTKSMSSMVSDTSCTFPSGDGIFWKHWIQTKDGQCGSPLVSTRDGFIVGIHSASNFTNTNNYFTSVPKNFMELLTNQEAQQWVSGWRLNADSVLHGGHKVFMVKPEEPFQPVKEATQL [W212H],0.0686,0.0604,,0.0615,,,0.0845,,0.0503,
MGESLFKGPRDYNPISSSICHLTNESDGHTTSLYGIGFGPFIITNKHLFRRNNGTLVVQSLHGVFKVKDTTTLQQHLVDGRDMIIIRMPKDFPPFPQKLKFREPQREERICLVTTNFQTKSMSSMVSDTSCTFPSGDGIFWKHWIQTKDGQCGSPLVTTRDGFIVGIHSASNFTNTNNYFTSVPKNFMELLTNQEAQQWVSGWRLNADSVLWGGHKVFMVKPEEPFQPVKEATQL [S158T],,0.0561,,0.0682,0.0706,,0.101,,,
MGESLFKGPRDYNPISSSICHLTNESDGHTTSLYGIGFGPFIITNKHLFRRNNGTLVVQSLHGVFKVKATTTLQQHLVDGRDMIIIRMPKDFPPFPQKLKFREPQREERICLVTTNFQTKSMSSMVSDTSCTFPSGDGIFWKHWIQTKDGQCGSPLVSTRDGFIVGIHSASNFTNTNNYFTSVPKNFMELLTNQEAQQWVSGWRLNADSVLWGGHKVFMVKPEEPFQPVKEATQL [D69A],,0.0788,,,,,0.0876,,,
MGESLFKGPRDYNPISSSICHLTNESDGHTTSLYGIGFGPFIITNKHLFRRNNGTLVVQSLHGVFKVKDTTTLQQHLVDGRDMIIIRMPKDFPPFPQKLKFREPQREERICLVTTNFQTKSMSSMVSDTSCTFPSGDGIFWKHWIQTKDGQCGSPLVSTRDGFIVGIHSASNFTNTNNYFTSVPKNFMELLTNQEAQQWVSGWRLNADSVLWGGHKVFMVKPEEPFHPVKEATQL [Q227H],,0.0645,0.0933,0.08,,0.0664,0.103,,0.0678,
MGESLFKGPRDYNPISSSICHLTNESDGHTTSLYGIGFGPFIITNKHLFRRNNGTLVVQSLHGVFKVKDTTTLQQHLVDGRDMIIIEMPKDFPPFPQKLKFREPQREERICLVTTNFQTKSMSSMVSDTSCTFPSGDGIFWKHWIQTKDGQCGSPLVSTRDGFIVGIHSASNFTNTNNYFTSVPKNFMELLTNQEAQQWVSGWRLNADSVLWGGHKVFMVKPEEPFQPVKEATQL [R87E],,0.0408,,0.0852,,0.0563,0.105,,,
MGESLFKGPRDYNPISSSICHLTNESDGHTTSLYGIGFGPFIITNKHLFRRNNGTLVVQSLHGVFKVKDTTTLQQHLVDGRDMIIIRMPKDFPPFPQKLKFREPQREERICLVTTNFQTKSMSSMVSDTSCTFPSGDGIFWKHWIQTKDGQCGSPLVSTRDGFIVGIHSASNFTNTNNYFTSVPKNFMELLTNQEAQQWVSGWRLNADSVLWGGHKVFMVKPEEPFQIVKEATQL [P228I],,0.0722,,,0.0572,,0.102,,,0.0526
MGESLFKGPRDYNPISSSICHLTNESDGHTTSLYGIGFGPFIITNKHLFRRNNGTLVVQSLHGVFKVKDTTTLQQHLVDGRDMIIIRMPKDFPPFPQKLKFREPQREERICLVTTNFQTKSMSSMVSDTSCTFPSGDGIFWKHWIQTKDGQCGSPLVSTRDGFIVGIHSASNKTNTNNYFTSVPKNFMELLTNQEAQQWVSGWRLNADSVLWGGHKVFMVKPEEPFQPVKEATQL [F173K],,0.0501,,,,,0.107,,,

# Same assay, conditions: temperature: 34 °C; time window: 0-4 h after rhamnose induction
Variant,area with substrate ENLYFQL,area with substrate ENLYFQT,area with substrate ENLYFQY
MGESLFKGPRDYNPISSSICHLTNESDGHTTSLYGIGFGPFIITNKHLFRRNNPTLVVQSLHGVFKVKDTTTLQQHLVDGRDMIIIRMPKDFPPFPQKLKFREPQREERICLVTTNFQTKSMSSMVSDTSCTFPSGDGIFWKHWIQTKDGQCGSPLVSTRDGFIVGIHSASNFTNTNNYFTSVPKNFMELLTNQEAQQWVSGWRLNADSVLWGGHKVFMVKPEEPFQPVKEATQL [G54P],0.0629,,
MGESLFKGPRDYNPISSSICHLTNESDGHTTSLYGIGFGPFIITNKHLFRRNNGTLVVQSLHGVFKVKATTTLQQHLVDGRDMIIIRMPKDFPPFPQKLKFREPQREERICLVTTNFQTKSMSSMVSDTSCTFPSGDGIFWKHWIQTKDGQCGSPLVSTRDGFIVGIHSASNFTNTNNYFTSVPKNFMELLTNQEAQQWVSGWRLNADSVLWGGHKVFMVKPEEPFQPVKEATQL [D69A],,0.067,0.0828
MGESLFKGPRDYNPISSSICHLTNESDGHTTSLYGIGFGPFIITNKHLFRRNNGTLVVQSLHGVFKVKDTTTLQQHLVDGRDMIIIRMPKDFPPFPQKLKFREPQREERICLVTTNFQTKSMSSMVSDTSCTFPSGDGIFWKHWIQTKDGQCGSPLVSTRDGFIVGIHSASNFTNTNNYFTSVPKNFMELLTNQEAQQWVSGWRLNADSVLWGGHKVFMVKPEEPFHPVKEATQL [Q227H],,0.0481,
MGESLFKGPRDYNPISSSICHLTNESDGHTTSLYGIGFGPFIITNKHLFRRNNGTLVVQSLHGVFKVKDTTTLQQHLVDGRDMIIIEMPKDFPPFPQKLKFREPQREERICLVTTNFQTKSMSSMVSDTSCTFPSGDGIFWKHWIQTKDGQCGSPLVSTRDGFIVGIHSASNFTNTNNYFTSVPKNFMELLTNQEAQQWVSGWRLNADSVLWGGHKVFMVKPEEPFQPVKEATQL [R87E],0.0737,0.07,
MGESLFKGPRDYNPISSSICHLTNESDGHTTSLYGIGFGPFIITNKHLFRRNNGTLVVQSLHGVFKVKDTTTLQQHLVDGRDMIIIRMPKDFPPFPQKLKFREPQREERICLVTTNFQTKSMSSMVSDTSCTFPSGDGIFWKHWIQTKDGQCGSPLVSTRDGFIVGIHSASNFTNTNNYFTSVPKNFMELLTNQEAQQWVSGWRLNADSVLWGGHKVFMVKPEEPFQIVKEATQL [P228I],,,0.0762
